Data published in the supplement of paper PMC9513381.
Recombinant human monoclonal antibodies (heavy:light variable regions). ELISA EC50 on the named antigen, from 10 µg/ml down; IC50 / IC90 against spike pseudovirus on 293T-ACE2 cells, 48 h; lower = stronger. Calls: IC50 above 1,000 ng/ml = non-neutralizing; EC50 above 1,000 ng/ml = non-binder. The source prints 1000 for neutralization that was not reached; it is given as >1000 ng/ml. Only binders of the Wuhan-Hu-1 domain have neutralization values.

B1: B2131 (protein)
chain 1: EVQLVETGGGLIQPGGSLRLSCAVSEFIVSSNYMSWLRQAPGKGLEWVSVIYSGGSTFYADSVKGRFIISRDNSKNTLYLQMNSLRPEDTAIYYCARDWGEFYFDHWGQGTLVTVSS
chain 2: EIVLTQSPGTLSLSPGERATLSCRASESVGGSYLAWYQQKPGQAPRLLIYDASNRATGIPDRFSGSGSGTDFSLTISRLEPVDFAIYYCQQYHSSPRTFGQGTKLEIK
B2: B2136 (protein)
chain 1: VQLVESGGGVVQPGRSLRLSCAASGFTFSVYGMHWVRQAPGSGLEWVAVISFDGNKKYYADSVKGRFTISRDNPKNTLYLQMNSLRPNDTAVYYCAKDGMATSDHLDYWGLGALVTVSS
chain 2: DIQMTQSPSSLSTSVGDRVTITCRASQSITNYLNWYQQKPGKAPKLLIYAASTLRSGVPSRFSGSGSGTDFTLTISSLQPEDFATYYCQQSYSTPGTFGQGTKVEIK
B3: B2137 (protein)
chain 1: QVQLQESGPGLVKPSETLSLTCSVSGGSITSGGDYWSWIRQRPGKGLEWIGYIDYSGSTYYNPSITNRVSISLDTSKNEFYLSLTSVTAADTAVFYCARGGGGYSYEDYWYFGLWGRGTLVTVSS
chain 2: QSVLTQPPSASARLGASVKLTCTLSSDHNNYAVAWHQQQPGKGPRCLMKVYSNGSHIKGDGFPDRFSGSSSGAERYLTISNLQSEDEADYYCQTWGNVFGAGTKLTVL
B4: B2138 (protein)
chain 1: QVQLVQSGAEVKKPGSSVRVSCKASGGTFINFAVSWVRQAPGEGLEYMGGLIPILRTSHHAQKFQGRLTITADESASTAYMELSSLKSEDTAVYYCATGVRYCGGGGCYSAYFQQWGQGTLVTVSS
chain 2: EIVLTQSPGTLSLSPGERATFSCRASQSVSSSHLAWYQQKPGQAPRLLIYGTSSRATGIPDRFSGSGSGTDFTLTISRLEREDFAVYYCHHYGSSTGTFGQGTKVEIK
B5: B1001 (protein)
chain 1: QVQLVQSGAEVKKPGSSVKVSCKASGGTFSNYAISWVRQAPGQGLEWMGGIIPMFAIANYAQKFQGRVTISADKSTSTAHMELSSLSSEDTAVYYCASLGNGITIVRGAPITDHHFAFWGQGTLVTVSS
chain 2: QSALTQPASVSGSPGQSITISCTGTSSDVGNYNLVSWYQHHPGKAPKLMIYEVSKRPSGVSNRFSGSKSGNTASLTISGLQAEDEADYFCCSFAASSTGHWVFGGGTKLAV
B6: B1002 (protein)
chain 1: QVQLVQSGAEVKKPGSSVKVTCRASGGTFSNLAISWVRQAPGQGLEWMGSIIPMFTISNYAQKLKGRVTITADKSTSTAYMELSSLRSGDTAVYFCASLGSNITVVRGAPITDHHFHYWGQGTLVTVSS
chain 2: QSALTQPASVSGSPGQSVTISCTGTSSDVGTYNLVSWYQQHPGKAPKLMIYEVSKRPSGVSNRFSGSKSGNTASLTISGLQAEDEADYYCCSYAASSTTHWVFGGGTKLAV
B7: B1003 (protein)
chain 1: QVQLQESGPGLLKPSETLSLTCSVSGGSLSSANFRWNWIRQPPGKGLEWIGNFIYSVSTNYNPSLKSRLTISMDTSKNQFSLKLTSVTAADTAVYFCARDTRYYDRSGSVTSDGMDVWGQGTTVTVSS
chain 2: DIQMTQSPSTLSASVGDRVTITCRASQSISNWLAWYQQKPGQAPRLLIYEASTLERGVPSRFSGSGSGTEFTLTISRLQPDDFATYYCQQCGGDSVTFGQGTKLEIK
B8: B1004 (protein)
chain 1: QVQLQESGPGLLKPSETLSLTCTVSGGSVSSANFHWSWIRQPPGKGLEWIGNFFYSGSTNYNPSLKSRLTISVDTSKNQFSLKLTSVTAADTAVYYCARDTRYYDRSGYVRSDGMDVWGQGTTVTVSS
chain 2: DIQMTQSPSTLSASVGDRVTITCRASQTISNWLAWYQQKPGQAPRLLIYEASTLERGVPSRFSGSGSGTEFTLTITGLQPDDFATYYCQQFDGDSVTFGQGTKLEIK
B9: B1005 (protein)
chain 1: QVQLVQSGAEVKKPGASVKVSCKASGDTFSNYAISWVRQAPGQGLEWMGNIIPMFDIATYAQKFQGRVTISADKSTSTAYMELSSLSSEDTAVYFCASLGNGITLVRGVPITDHHFDYWGQGTLVTVSS
chain 2: QSVLTQPASVSGSPGQSITISCTGTSSDIGTYNLVSWYQQHPGKAPKLMIYEVSKRPSGVSNRFSGSKSGNTASLTISGLQAEDEADYYCCSYAASTTHWVFGGGTKLAV
B10: B1006 (protein)
chain 1: QVQLVQSGTEVKKPGASVKVSCMASGNSFSNYAISWVRQAPGQGLEWMGNIIPMFDIATYAQKFQGRVTISADKSTSKVFMDLNSLSSEDTGVYFCASLGNGITLVRGAPITDHHFDYWGQGALVTVSS
chain 2: QSVLTQPASVSGSPGQSITISCTGTSSDIGSYNLVSWYQQHPGKAPKLMIYEVSKRPSGMSNRFSGSKSGNTASLTISGLQAEDEADYYCCSYAAGTTHWVFGGGTTLAV
B11: B2014 (protein)
chain 1: QVQLVQSGAELKRPGASVKVSCKASGYTFSDYHMNWVRQAPGQGLEWMGIINPSGGGASYPQKFQGRVTMTRDTSTSTVFMQLNSLTYEDTAVYYCARGTPPSRGWYGGFDNWGQGTLVTVSS
chain 2: QSVLTQPPSVSGAPGQRITISCTGSTSNIGAGYDVQWYQQLPGTAPKLLIFDNNNRPSGVPDRFSGSKSGTSASLAITGLQAEDEADYYCQSFDSTLSGSTFVFGPGTKVTVL
B12: B1007 (protein)
chain 1: QVQLVQSGAEVRKPGASVTVSCKASGYTFTNYYIHWARQAPGQGLEWMGMMNPSGGNTNYAQKFQGRVTMTRDTSTSTVYMELSSLRSEDTAVYYCARDRLMGYYDLWNAYGGMDVWGQGTTVTVSS
chain 2: SYELTQPPSVSVAPGKTARITCGGNNIGIKSVHWYQQKSGQAPVLVMFSDRDRPSGIPVRFSGSNSGNTATLTISGVEAGDEADYYCQVWDNSSAWVFGGGTKLTVL
B13: B1008 (protein)
chain 1: QVQLVQSGAEVKKPGAPVKISCKASGYILTNHYIHWVRQAPGQGLEWMGMINPSGGSAHYAQNFQGRVTMTRDTSTSTVSMELSSLKSEDTAVYYCARDRLMGYYELWNAYGGMDVWGQGTTVTVSS
chain 2: SYELTQPPSVSVAPGKTARISCGGNDIGSKRVHWYQQKPGLAPVLVIYYDGDRPSGIPERFSASNSGFTATLTISRVEAGDEADYYCQVWDNTSAWVFGGGSKLTVL
B14: B1010 (protein)
chain 1: QVQLVQSGAEVKKPGASVKVSCKAAGYTFTSSDINWVRQATGQGLEWMGWMNPNTGNTDYAQKFQGRVTMTRDTSISTAYMELSSLRSEDTAVYYCASRSLITMVREGIKYHYYVMDVWGPGTTVTVSS
chain 2: DIVMTQSPLSLPVTPGEPASISCRSSQSLLHTNGYNYLDWYLQKPGQSPHLLIYLGSNRTSGVPDRFSGSGSGTDFTLKISRVEAQDVGVYYCMQALQTPPTFGPGTKVDIK

Key:
[1] = target: SARS-CoV-2 Wuhan-Hu-1 spike pseudovirus; experiment: pseudovirus neutralization IC50; higher = weaker neutralization
Protocol: (§1)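 Single-round luciferase reporter pseudovirus mixed with antibody dilutions and put on 293T-ACE2 cells for 48 h; signal relative to no-antibody wells, four-parameter fit.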

[2] = target: SARS-CoV-2 Wuhan-Hu-1 spike pseudovirus; experiment: pseudovirus neutralization IC90; higher = weaker neutralization
Protocol: as §1

[3] = target: SARS-CoV-2 Delta (B.1.617.2) spike RBD; experiment: ELISA binding EC50; higher = weaker binding; ELISA of recombinant human antibody on coated antigen, from 10 µg/ml in fourfold dilutions; four-parameter fit.
[4] = target: SARS-CoV-2 Omicron BA.1 spike protein; experiment: as above
[5] = target: SARS-CoV-2 Wuhan-Hu-1 spike receptor-binding domain; experiment: as above

Binder	pseudovirus neutralization IC50 [1] [µg/mL]	pseudovirus neutralization IC90 [2] [µg/mL]	ELISA binding EC50 [3] [µg/mL]	ELISA binding EC50 [4] [µg/mL]	ELISA binding EC50 [5] [µg/mL]
B1	0.00749	0.0647	0.0169	0.633	0.00322
B2	0.0101	0.104	> 1	0.00714	0.00232
B3	> 1	> 1	> 1	> 1	0.00832
B4	0.0048	0.0191	0.00793	0.213	0.00281
B5	0.00161	0.0108	> 1	> 1	0.00147
B6	0.0142	0.0686	0.0327	> 1	0.00614
B7	0.0239	0.424	0.0101	0.0069	0.0027
B8	0.0419	0.448	0.00959	0.00679	0.00299
B9	0.0115	0.0626	0.353	> 1	0.00433
B10	0.00457	0.0285	> 1	0.804	0.0061
B11	0.0102	0.0557	0.0117	0.041	0.00215
B12	0.913	> 1	0.0513	0.0873	0.0102
B13	0.916	> 1	0.0387	0.0177	0.0056
B14	0.0103	0.0738	0.0312	0.00249	0.00293
